The values that follow come from patent publication US11618753B2 (priority 2018, dated 2023).

The test system of the test is MLKL phosphorylation, HT29-L23 human colorectal adenocarcinoma cells. In words: cells. Particulars: read-out: pMLKL HCS Cell Assay (IC50, uM).
With `CC(C)(F)C(=O)N1C[C@H](F)[C@H](NC(=O)c2cncc(-c3cc(C(F)(F)F)c4c(N)ncnn34)c2)C1` [Example 278, 5-[4-amino-5-(trifluoromethyl)pyrrolo[2,1-f][1,2,4]triazin-7-yl]-N-[(3R,4S)-4-fluoro-1-(2-fluoro-2-methylpropanoyl)pyrrolidin-3-yl]pyridine-3-carboxamide], the IC50 (as a rule, the concentration at which inhibition is half-maximal) came out at 0.249 µM. Then `Cc1nc(C)c(-c2cc(C(F)(F)F)c3c(N)ncnn23)cc1C(=O)N[C@@H]1CN(C(=O)c2c(F)cncc2F)C[C@@H]1F` [Example 1188, 5-[4-amino-5-(trifluoromethyl)pyrrolo[2,1-f][1,2,4]triazin-7-yl]-N-[(3R,4S)-1-(3,5-difluoropyridine-4-carbonyl)-4-fluoropyrrolidin-3-yl]-2,6-dimethylpyridine-3-carboxamide], with 0.086 µM; and `[2H]C([2H])([2H])Oc1ncc(-c2cc(CN3CC(F)(F)C3)c3c(N)ncnn23)cc1C(=O)N[C@@H]1CN(S(=O)(=O)CC)C[C@@H]1F` [Example 1283, 5-{4-amino-5-[(3,3-difluoroazetidin-1-yl)methyl]pyrrolo[2,1-f][1,2,4]triazin-7-yl}-N-[(3R,4S)-1-(ethanesulfonyl)-4-fluoropyrrolidin-3-yl]-2-(methoxy-d3)nicotinamide], with 0.0024 µM. In the case of `Cc1ncc(-c2cc(C(F)(F)F)c3c(N)ncnn23)cc1C(=O)Nc1cc(C)n(Cc2ccc(F)cc2)n1` [Example 1812, 5-(4-amino-5-(trifluoromethyl)pyrrolo[2,1-f][1,2,4]triazin-7-yl)-N-(1-(4-fluorobenzyl)-5-methyl-1H-pyrazol-3-yl)-2-methylnicotinamide], the IC50 came to 0.00057 µM.

Consider `Cc1cc(F)c(-c2cc(C(F)(F)F)c3c(N)ncnn23)cc1C(=O)N[C@@H]1CN(C(=O)c2cc(F)c(F)cc2Cl)C[C@@H]1F` [Example 808, 5-[4-amino-5-(trifluoromethyl)pyrrolo[2,1-f][1,2,4]triazin-7-yl]-N-[(3R,4S)-1-(2-chloro-4,5-difluorobenzoyl)-4-fluoropyrrolidin-3-yl]-4-fluoro-2-methylbenzamide], for which the IC50 was determined as 0.025 µM.

Regarding `Cc1ccc(-c2cc(C(F)(F)F)c3c(N)ncnn23)cc1C(=O)N[C@@H]1CN(C(=O)c2cc(F)cc(F)c2)C[C@@H]1F` [Example 1029, 5-[4-amino-5-(trifluoromethyl)pyrrolo[2,1-f][1,2,4]triazin-7-yl]-N-[(3R,4S)-1-(3,5-difluorobenzoyl)-4-fluoropyrrolidin-3-yl]-2-methylbenzamide], the IC50 stood at 0.0013 µM. In the case of `COc1ncc(-c2cc(CN3CC(F)(F)C3)c3c(N)ncnn23)cc1C(=O)N[C@@H]1CN(C(=O)C2CC2(F)F)C[C@@H]1F` (stereo partly drawn) [Example 1617, 5-{4-amino-5-[(3,3-difluoroazetidin-1-yl)methyl]pyrrolo[2,1-f][1,2,4]triazin-7-yl}-N-[(3R,4S)-1-(2,2-difluorocyclopropanecarbonyl)-4-fluoropyrrolidin-3-yl]-2-methoxypyridine-3-carboxamide], the IC50 was 0.0011 µM. In the case of `COc1ncc(-c2cc(C(F)(F)F)c3c(N)ncnn23)cc1C(=O)N[C@@H]1CN(C(=O)C(C)(C)N(C)C(=O)OC(C)(C)C)C[C@@H]1F` [Example 1669, tert-butyl (1-((3R,4S)-3-(5-(4-amino-5-(trifluoromethyl)pyrrolo[2,1-f][1,2,4]triazin-7-yl)-2-methoxynicotinamido)-4-fluoropyrrolidin-1-yl)-2-methyl-1-oxopropan-2-yl)(methyl)carbamate] it was 0.231 µM; in that of `COc1ncc(-c2cc(C(F)(F)F)c3c(N)ncnn23)cc1C(=O)NC1CN(C(C)c2c(F)cc(F)cc2F)C[C@@H]1F` (stereo partly drawn) [Example 1390, 5-[4-amino-5-(trifluoromethyl)-pyrrolo[2,1-f][1,2,4]triazin-7-yl]-N-[(3R,4S)-4-fluoro-1-[1-(2,4,6-trifluorophenyl)-ethyl]pyrrolidin-3-yl]-2-methoxypyridine-3-carbox-amide], 0.013 µM; in that of `Cc1cc(F)c(-c2cc(C(F)(F)F)c3c(N)ncnn23)cc1C(=O)N[C@@H]1CN(C(=O)C(C)(C)O)C[C@@H]1F` [Example 416, 5-[4-amino-5-(trifluoromethyl)pyrrolo[2,1-f][1,2,4]triazin-7-yl]-4-fluoro-N-[(3R,4S)-4-fluoro-1-(2-hydroxy-2-methylpropanoyl)pyrrolidin-3-yl]-2-methylbenzamide], 0.032 µM. In the case of `COc1ncc(-c2cc(CN3CCC(F)(F)CC3)c3c(N)ncnn23)cc1C(=O)N[C@@H]1CN(C(=O)OC2CC(F)(F)C2(F)F)C[C@@H]1F` (stereo partly drawn) [Example 1532, 2,2,3,3-tetrafluorocyclobutyl (3R,4S)-3-(5-{4-amino-5-[(4,4-difluoropiperidin-1-yl)methyl]pyrrolo[2,1-f][1,2,4]triazin-7-yl}-2-methoxypyridine-3-amido)-4-fluoropyrrolidine-1-carboxylate] it was 0.0021 µM.

As to `Cc1ccc(-c2cc(C(F)(F)F)c3c(N)ncnn23)cc1C(=O)N[C@@H]1CN(C(=O)c2ccncc2F)C[C@@H]1F` [Example 1006, 5-[4-amino-5-(trifluoromethyl)pyrrolo[2,1-f][1,2,4]triazin-7-yl]-N-[(3R,4S)-4-fluoro-1-(3-fluoropyridine-4-carbonyl)pyrrolidin-3-yl]-2-methylbenzamide], the IC50 is 0.0072 µM. For the compound `COc1c(F)cc(-c2cc(C(F)(F)F)c3c(N)ncnn23)cc1C(=O)N[C@@H]1CN(C(=O)C(C)(C)O)C[C@@H]1F` [Example 700, 5-[4-amino-5-(trifluoromethyl)pyrrolo[2,1-f][1,2,4]triazin-7-yl]-3-fluoro-N-[(3R,4S)-4-fluoro-1-(2-hydroxy-2-methylpropanoyl)pyrrolidin-3-yl]-2-methoxybenzamide], the IC50 was found to be 0.105 µM.

Take `[2H]C([2H])([2H])Oc1nc(C)c(-c2cc(C(F)(F)F)c3c(N)ncnn23)cc1C(=O)N[C@@H]1CN(C(=O)C2CC(F)C2)C[C@@H]1F` (stereo partly drawn) [Example 518, 5-[4-amino-5-(trifluoromethyl)pyrrolo[2,1-f][1,2,4]triazin-7-yl]-N-[(3R,4S)-4-fluoro-1-(3-fluorocyclobutanecarbonyl)pyrrolidin-3-yl]-2-(Deutero)methoxy-6-methylpyridine-3-carboxamide]: the IC50 was determined as 0.022 µM. For `COc1ncc(-c2cc(C(F)(F)F)c3c(N)ncnn23)cc1C(=O)N[C@@H]1CN(C(=O)c2ccc(F)c(F)c2)C[C@@H]1F` [Example 305, 5-[4-amino-5-(trifluoromethyl)pyrrolo[2,1-f][1,2,4]triazin-7-yl]-N-[(3R,4S)-1-(3,4-difluorobenzoyl)-4-fluoropyrrolidin-3-yl]-2-methoxypyridine-3-carboxamide], the IC50 was 0.018 µM. With `Nc1ncnn2c(-c3ccc(Cl)c(C(=O)N[C@@H]4CN(C(=O)C5CCC(F)(F)C5)C[C@@H]4F)c3)cc(CN3CCC(C(F)(F)F)CC3)c12` (stereo partly drawn) [Example 1161, 5-(4-amino-5-{[4-(trifluoromethyl)piperidin-1-yl]methyl}pyrrolo[2,1-f][1,2,4]triazin-7-yl)-2-chloro-N-[(3R,4S)-1-(3,3-difluorocyclopentanecarbonyl)-4-fluoropyrrolidin-3-yl]benzamide], the IC50 was found to be 0.0026 µM.
